Test results: ChEMBL document CHEMBL4888484, “Replenishing the malaria drug discovery pipeline: Screening and hit evaluation of the MMV Hit Generation Library 1 (HGL1) against asexual blood stage Plasmodium falciparum ,using a nano luciferase reporter read-out” (2022)
Screen size: about 150,000 compounds; about 540 (0.36%) showed an effect of 50% or more. The list shows a part of the results.

tested on: Plasmodium falciparum; assay: Primary screen in NF54 nanoGlo assay, in single point, at 2uM, 72h; a lower Z score goes with more inhibition; type: functional, Erythrocyte; settings: timepoint 72 hour

Structure (SMILES)	% Inhibition	Z score
CCCn1cc(NC(=O)c2sc(N(C)C)nc2C)cn1	-7%	1.18
O=C(CN1C(=O)[C@@H]2CCCCN2C(=O)c2ccccc21)Nc1nccs1	-13%	1.69
CC(C)(C)[C@H]1CCCN(c2ccc(C#N)cc2CS(N)(=O)=O)C1	-8%	1.55
O=C(N[C@H]1CCN(c2ncnc3c2CCC3)C1)c1cnccn1	-6%	0.97
CCN(Cc1nc2c(s1)C[C@@H](C)CC2)C(=O)c1cnsn1	0%	0.06
O=C1NCCCc2cc(O[C@H]3CCCN(c4cccc(F)c4)C3=O)ccc21	-7%	0.99
C[C@H](NC(=O)CCC1CCN(C)CC1)[C@H](O)c1ccc(O)cc1	-7%	0.82
O=C(NC1CC1)c1cccc(CCOc2ccc(F)cc2)c1	3%	-0.46
Cc1occc1C(=O)NC1(c2ccccc2)CCOCC1	33%	-4.44
CNC(=O)c1ccc(NC2CCCCCC2OC)nn1 (configuration not stated)	-16%	1.76
COC(=O)C(C)(C)CNCc1scnc1C	-10%	1.31
CCOc1cc(CCCNC(=O)[C@@H]2CCO2)ccc1OC	-10%	1.38
CCc1nc(NC2CCC(NC(=O)c3cccc(F)c3)CC2)c2c(C)nn(-c3ccccc3C)c2n1 (configuration not stated)	16%	-1.88
CC1(C)CCCN(C(=O)c2ccc3c(c2)NC(=O)CO3)CC1	-9%	0.94
CC(NCC(O)C(C)C)c1csnn1 (configuration not stated)	4%	-0.64
CNc1ccc(Nc2nc(C(C)C)ns2)cn1	-4%	0.43
CCCc1nc(C(=O)NC[C@H]2CCCN(C(=O)c3oc(C)nc3C)C2)cs1	-6%	0.55
CC(C)N1CCN(C(=O)C2C3C(=O)N(CCc4ccncc4)C[C@@]34C=C[C@@H]2O4)CC1 (some centres not stated)	-11%	2.24
Cc1ccc(NC(=O)Cn2nc3c4sc(N(C)C)nc4ncn3c2=O)cc1F	-19%	1.81
CC(C)COCC(C)NC(=O)NC(C)C1CCOCC1 (configuration not stated)	0%	-0.02
O=C(NCCc1ccccc1)Nc1ccc2c(c1)N(C(=O)c1ccccc1)CCC2	-2%	0.47
CCCN1C(=O)COc2cc(-c3noc(C(=O)NC4CCN(Cc5ccccc5)CC4)n3)ccc21	7%	-0.78

Structure (SMILES)	% Inhibition	Z score
Cc1cc(OCc2noc(-c3ccc(C(F)(F)F)cc3)n2)ccc1F	-4%	0.8
CC(=O)N[C@H]1C[C@@H](c2ccc(O)c(Cl)c2)O[C@@H](C2CCCCC2)C1	0%	0.09
CC(C)CCc1noc(CNS(=O)(=O)c2cccs2)n1	3%	-0.52
CCn1nc(C2CC2)cc1C(=O)Nc1ccsc1C(N)=O	-5%	0.89
O[C@H]1CN(c2cnc3ccccc3n2)C[C@@H]1N1CCCC1	-8%	1.14
COc1cc(Nc2ccc(N)cc2)nc(C)n1	0%	0.06
Oc1[nH]nc2nc(C(F)(F)F)cc(C(F)(F)F)c12	-14%	2.12
CC(C)(C)C(=O)N1CC(c2nc(-c3cccnc3)no2)C1	4%	-0.69
CN(C(=O)[C@@H]1COCCO1)c1cc(Cl)cc(Cl)c1	-2%	0.39
CC(C)N1CCN(CCn2cnc(-c3ccccc3)c2-c2ccsc2)CC1	-2%	0.21
CC1CCC(NC(=O)NCCc2ccnn2C)C(C)C1 (configuration not stated)	-12%	1.73
O=C(N[C@@H]1CCCC[C@H]1NC(=O)C1CCN(S(=O)(=O)c2ccc(Br)cc2)CC1)c1ccccc1	-14%	1.97
O=C(c1cnc(-c2cccnc2)nc1)N1CCO[C@@H](Cc2cccc(F)c2)C1	-29%	3.12
Cc1ccc(CN(C)C(=O)c2cccc(S(=O)(=O)N3CCCCC3)c2)o1	-1%	0.13
CC(C)(CNC(=O)NCC1CC2CCC1C2)NS(C)(=O)=O (configuration not stated)	7%	-0.97
CCc1nnc(-c2nc3c([nH]2)C[C@H](c2cccc(OC)c2)CNC3=O)s1	-1%	0.12
COc1ccc(C(=O)N[C@H]2CC(=O)N(c3ccc4c(c3)OCCO4)C2)cc1	-8%	1.57
O=S(=O)(c1c(F)cccc1Br)N1CC2CCC1C2 (configuration not stated)	29%	-3.32
COc1ccc(S(=O)(=O)N2CCC3(CC2)C[C@@H](C(=O)NC2CCCC2)N(C)C3=O)cc1	-4%	0.45
COc1cccc(CN(C)c2nc(=O)c3c(ncn3CC3CC3)c(=O)[nH]2)c1	-7%	1.24
Cc1ccc(CC(=O)N[C@@H]2CS(=O)(=O)C[C@H]2O)c(Cl)c1	-8%	1.12
O=C(c1cc[nH]n1)N1CCOc2c(O)cc(-c3cccnc3)cc2C1	-16%	2.76

Structure (SMILES)	% Inhibition	Z score
CCc1ccc(-c2nn(C)c(=O)c3c2CCCC3)cc1S(=O)(=O)N1CCCC1	-7%	1.01
O=C(NC1CCC2(CCOCC2)CC1)c1cc(C2CC2)on1	3%	-0.53
CC[C@H]1CCCCN1CCCNC(=O)c1cc2occc2c(Nc2ccc(F)cc2)n1	-7%	0.72
O=C(NCc1ccccc1)N1C[C@H]2CC[C@@H](C1)N(Cc1ccccn1)C2	-1%	0.31
O=C(Nc1ccccc1-c1nc2ccccc2s1)N1CCC[C@@H]1CO	-10%	1.83
CCN1CCN(C(=O)c2cncc(O)n2)CC1(C)C	-6%	0.77
CCCc1cc(C(=O)N[C@@H](C)c2nnc(C(C)C)o2)[nH]n1	-3%	0.54
CNc1cc([C@H]2C[C@H](Nc3nc(N)nc(C)c3Cl)C2)nc(COC)n1	-3%	0.34
Cc1cc(C)c(-c2cc(C(=O)N(CCC(=O)N3CCCCC3)C3CC3)no2)c(C)c1	-6%	1.23
FC(F)(F)c1ccccc1CN1CCC(O[C@H]2CCOC2)CC1	0%	-0.02
Clc1ccc(CN2CCN(c3ncnc4sccc34)CC2)cc1	-7%	1.31
O=C(c1cc(=O)[nH]c2ccccc12)N1CCN(c2ccc(F)cc2)CC1	-15%	2.11
CCOCCC(=O)NC1(CO)CCCCCC1	4%	-0.59
CC1CN(CC2CCN(C(=O)Cc3cccs3)CC2)CC(C)O1 (configuration not stated)	1%	-0.16
CC(C)Oc1ccc(C(=O)N2C3CCC2CC(n2ccnn2)C3)cc1 (configuration not stated)	-3%	0.47
Cc1nn(C)c(C)c1S(=O)(=O)N[C@@]1(C)CC(C)(C)OC1=O	32%	-3.75
O=C(c1ccn2ccnc2c1)N(CCc1cccc(F)c1)C1CC1	-7%	0.99
O=C(Nc1nn2cc(-c3ccccc3)nc2s1)c1cccc(F)c1	-15%	2.88
CCCc1cc(CNC(=O)[C@H](C)S(=O)(=O)CC)on1	-2%	0.24
CC(C)c1cnc(N2CC[C@](C)(O)C2)s1	-4%	0.44
FC(F)(F)c1ccc2c(c1)NC[C@@H]1CCCCN21	-2%	0.23
CCCn1ncc(C(=O)NC[C@H](C)C(=O)O)c1C	-11%	0.98

Structure (SMILES)	% Inhibition	Z score
COc1cc2c(cc1OC)CN(C(=O)Cn1ccnc1C(C)C)CC2	-2%	0.25
Cc1nnc(NC(=O)c2c(C)noc2-c2ccc(Cl)cc2)s1	-2%	0.25
Cc1nc([C@H](C)Nc2ncnc3[nH]cnc23)cs1	-10%	1.43
C[C@]1(C(N)=O)CCN(C(=O)c2ccc3c(c2)CCCC3=O)C1	18%	-2.25
C=C(C)C[C@H](C)C(=O)NCC12COCCN1CCOC2	-10%	1.15
C=CCN(CC=C)C(=O)Cc1ccccc1C	2%	-0.42
CCCCOc1ccc(NC(=O)N2CCCN(Cc3cnn(CCC)c3)CC2)c(C)c1	-6%	0.58
Cc1c(C(=O)N2CCN(c3ccccc3F)CC2)cccc1-n1nnc2cccnc21	1%	-0.2
CC1CCC(O)(CN2CCC[C@H]2C(=O)N(C)C)CC1 (some centres not stated)	-1%	0.19
CCC1CN(C(=O)C(C)NC(C)=O)CC1O (configuration not stated)	-1%	0.15
CC[C@@H](C(=O)Nc1c(-c2ccc3c(c2)OCO3)n[nH]c1C1CC1)c1ccccc1	-3%	0.57
Cc1cc(Br)cc(Cl)c1NC(=O)C(C)C	1%	-0.19
Cc1nnc(NC(=O)NC2CCN(Cc3ccccc3)CC2)s1	-6%	1.01
O=C(O)c1ccccc1-n1nc(C2CCCC2)nc1CN1CCCCC1=O	-2%	0.24
Cc1nnc2c(N3CCC(NC(=O)[C@H](C)Oc4ccccc4)CC3)nccn12	-8%	1.57
Cc1cccnc1C[C@H](C)n1cc(-c2ncc[nH]2)nn1	2%	-0.33
CCCc1cc(C(=O)N[C@@H]2c3ccccc3C[C@H]2NC(C)=O)[nH]n1	-1%	0.11
COC[C@H](C)N(Cc1cccc(F)c1)C(=O)c1ccc(-n2cnnc2)nc1	6%	-0.82
Cc1nc(C)c(C(=O)NC2CCCC2)o1	-13%	1.7
CCC1(NC(=O)c2[nH]nc(C(F)(F)F)c2C)CCC1	-8%	0.94
